# Values joined by “and” are separate entries in the source; they are usually repeats but may differ in a detail not shown here. Equal values may be shown once. Among all 270,000 compounds or so, about 5,800 (2.1%) were called active. Inconclusive results, whose numbers are uncertain, are shown with a selection of clear calls. The call rests on the fitted dose curve; in most records, active means well fitted inhibition curve with a large enough effect; inconclusive means small, poorly fitted or top-dose-only effect; inactive means flat fitted curve, though single readings scatter. Potencies beside an inconclusive call are fits to weak or partial responses and may not hold up.
# Molecular target: Microtubule-associated protein tau (Homo sapiens) (UniProt P10636)
# UniProt P10636, sequence (P10636 whole entry, looked up): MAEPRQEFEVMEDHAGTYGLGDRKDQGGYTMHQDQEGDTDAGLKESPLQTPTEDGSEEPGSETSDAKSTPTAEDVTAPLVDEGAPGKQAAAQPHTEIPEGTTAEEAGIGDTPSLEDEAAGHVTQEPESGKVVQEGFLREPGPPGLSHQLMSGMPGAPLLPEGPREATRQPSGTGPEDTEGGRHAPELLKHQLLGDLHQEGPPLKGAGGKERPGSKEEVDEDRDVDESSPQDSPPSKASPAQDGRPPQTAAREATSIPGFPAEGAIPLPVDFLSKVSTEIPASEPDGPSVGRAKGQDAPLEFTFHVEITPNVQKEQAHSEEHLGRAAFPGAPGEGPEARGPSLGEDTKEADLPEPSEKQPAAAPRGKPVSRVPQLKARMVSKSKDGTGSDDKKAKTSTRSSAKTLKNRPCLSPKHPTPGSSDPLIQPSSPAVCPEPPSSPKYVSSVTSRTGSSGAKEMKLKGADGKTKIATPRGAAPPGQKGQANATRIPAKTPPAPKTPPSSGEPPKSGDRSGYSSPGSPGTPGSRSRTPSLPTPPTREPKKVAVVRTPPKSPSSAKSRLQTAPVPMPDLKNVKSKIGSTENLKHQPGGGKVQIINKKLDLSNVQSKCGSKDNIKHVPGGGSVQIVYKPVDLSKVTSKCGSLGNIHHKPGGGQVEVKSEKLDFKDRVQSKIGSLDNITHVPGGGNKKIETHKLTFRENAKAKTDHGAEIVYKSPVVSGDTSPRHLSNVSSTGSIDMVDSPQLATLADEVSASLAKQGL
# Assay: qHTS for Inhibitors of Tau Fibril Formation, Thioflavin T Binding; further: nearly all actives have a fitted effect of over 55% in size
# Settings: recombinant tau K18 P301L (four-repeat tau fragment), heparin-induced fibrillization, ThT fluorescence; series mostly up to 57.4 µM; activity, negative = inhibition: at the top concentration
# Summary of the method: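 Aggregation was driven by heparin (20 uM final) acting on recombinant tau […] bearing P301L in 100 mM sodium acetate pH 7; fibrils were detected with Thioflavin T.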
# On the % scale 0 is the no-effect control and ±100 the full control effect; potency means the concentration at half of the fitted maximal effect; tags describe the fitted curve by direction and shape.
Compound,"activity, negative = inhibition",Potency
O=C(O)C1Cc2ccccc2CN1C(=O)CSc1nnc2ccccn12 (stereo not drawn),inactive: -3.97%,
Oc1ccc(CN2CCc3ccccc3C2)c2cccnc12,,"inconclusive: 10 µM [inhibitor, partial curve]"
COc1ccc(-c2nn(C)c3sc(C(=O)N4CCN(c5ccccc5F)CC4)cc23)cc1OC,,"inconclusive: 4.47 µM [inhibitor, partial curve]"
COCCOC(=O)C(CC(=O)O)NCc1ccco1 (stereo not drawn),inactive: 2.87%,
COc1ccc(-c2nnc(NC(=O)c3ccc(S(=O)(=O)N4COCC4(C)C)cc3)o2)cc1,,"inconclusive: 20 µM [inhibitor, partial curve]"
CCCCN(C)c1ccc([N+](=O)[O-])cc1,,"inconclusive: 28.2 µM [inhibitor, single point]"
Cc1ccccc1OCCSc1nc(C)c(Cc2ccccc2)c(=O)[nH]1,inactive: -5.29%,
COc1ccc(NC(=O)c2csc3c2CCCC3)cc1,,"inconclusive: 8.91 µM [inhibitor, partial curve]"
Cc1nn(-c2nc3ccccc3s2)c(N)c1-c1ccccc1,,"inconclusive: 2.24 µM [inhibitor, full curve]"
Cc1c(C(=O)O)cccc1-c1ccc(/C=C2/NC(=O)N(c3ccccc3)C2=O)o1,inactive: -15%,
COC(C[C@H]1O[C@H]1[C@H](O)[C@@H](C)OCc1ccccc1)OC,inactive: 6.34%,
CCOC(=O)C1=C(C)Nc2ccc(C)cc2S1,,active: 15.8 µM
O=C(Cc1cc(=O)[nH][nH]1)N/N=C/C=C/c1ccccc1,,active: 14.1 µM and active: 12.6 µM
O=C(CC(SCCO)c1ccc2c(c1)OCO2)c1cccs1 (stereo not drawn),,"inconclusive: 12.6 µM [inhibitor, partial curve]"
CC(=O)Nc1ccc(S(=O)(=O)NCC(=O)OCC(=O)N2CCCc3ccccc32)cc1,inactive: 6.03%,
Cc1cc2c(cc3c(SCc4ccc(Cl)cc4)nnc(C)n32)o1,,"inconclusive: 12.6 µM [inhibitor, partial curve]"
CCN(CCCNC(=O)c1cc2cc3cc(OC)ccc3nc2s1)c1cccc(C)c1,,"inconclusive: 3.55 µM [inhibitor, full curve]"
COc1ccc(NC(=O)CSc2oc(-c3ccc(C)cc3)nc2S(=O)(=O)c2ccc(C)cc2)c(OC)c1,inactive: 1.47%,
CCC(=O)Oc1c(Sc2ccc(Cl)cc2)c(C)nn1C(C)(C)C,,"inconclusive: 28.2 µM [inhibitor, single point]"
c1ccc(COc2ccc(CN3CCN(c4ccccn4)CC3)cc2)cc1,,"inconclusive: 22.4 µM [inhibitor, partial curve]"
CC1(C)CC(=O)c2sc(NC(=O)c3ccc4ncsc4c3)nc2C1,inactive: -1.37%,
CSCCC(NS(=O)(=O)c1ccc2c(c1)oc(=O)n2C)C(=O)N1CCN(c2cc(Cl)ccc2C)CC1 (stereo not drawn),inactive: -15.9%,
CC1=CC(C)(C)N2C(=O)C(=Nc3ccc(O)cc3)c3cccc1c32,,active: 12.6 µM
CN(C)S(=O)(=O)c1ccc(N2CCCC2)c(C(=O)N2CCN(c3ccc([N+](=O)[O-])cc3)CC2)c1,,"inconclusive: 5.62 µM [inhibitor, partial curve]"
COc1ccc(/C=N/N2C(=O)CSC2=S)cc1,,"inconclusive: 14.1 µM [inhibitor, partial curve]"

Compound,"activity, negative = inhibition",Potency
Cc1nnsc1C(=O)N/N=C/c1ccccc1,inactive: 3.41%,
C=CCn1c(SCC(=O)O)nnc1-c1cccs1,inactive: -7.24%,
Cc1ccc(C)c(N=Nc2nc3ccccc3n2C)c1,,active: 5.62 µM
O=c1c(O)c(-c2ccccc2)oc2ccc3occc3c12,inactive: -24.8%,
Cc1cc2nc3c(=O)[nH]c(=O)[nH]c3nc2c([N+](=O)[O-])c1N,,active: 14.1 µM
Cc1ccc(C(NC(=O)Cc2cccs2)C(=O)Nc2ccc(C(C)C)cc2)cc1 (stereo not drawn),inactive: 11.1%,
CCOc1ccc(/C(O)=C2/C(=O)C(=O)N(CC3CCCO3)C2c2ccc(C)o2)cc1 (stereo not drawn),inactive: -19.9%,
CCOC(=O)c1cnc2ccccc2c1Nc1ccc2c(c1)OCCO2,,"inconclusive: 28.2 µM [inhibitor, single point]"
Cc1ccc(CSC2=Nc3ccccc3C3=NC(CC(=O)NC4CCCCC4)C(=O)N23)c(C)c1 (stereo not drawn),,"inconclusive: 14.1 µM [inhibitor, single point]"
Nc1ccc(C(=O)OCc2nc3ccccc3[nH]2)cc1,,"inconclusive: 1.12 µM [inhibitor, partial curve]"
Cc1ccc2nc(-c3ccncc3)c(Nc3ccccc3C)n2c1,inactive: -8.05%,
CCOC(=O)c1ccccc1NC(=O)CSc1nc2ncccc2o1,inactive: -0.153%,
C=CCn1c(O)c(N=NC(=S)Nc2ccccc2F)c2ccccc21,,"inconclusive: 25.1 µM [inhibitor, partial curve]"
CCc1cccc(NC(=O)CNS(=O)(=O)c2ccc3nc(C)sc3c2)c1,inactive: -0.73%,
COc1ccc2c(c1)c1c(c(=O)n(-c3cccc(C)c3)c(=O)n1CC(=O)Nc1c(C)cc(C)cc1C)n2C,inactive: -13.8%,
CCOCCCn1c(=N)c(C(=O)NCc2ccco2)cc2c(=O)n3ccccc3nc21,inactive: -7.69%,
CCOc1cc(N(CC)CC)ccc1/C=C(/C#N)c1nc2ccccc2[nH]1,,"inconclusive: 10 µM [inhibitor, partial curve]"
CCOC(=O)c1c(C)oc2nc(C)nc(NCc3ccc(C)cc3)c12,,"inconclusive: 28.2 µM [inhibitor, single point]"
COc1ccc2nc3sc(C(=O)Nc4cc(Cl)c(OC)cc4OC)cc3cc2c1,,"inconclusive: 3.98 µM [inhibitor, full curve]"
NC(N)=Nc1nc2ccc([N+](=O)[O-])cc2[nH]1,,"inconclusive: 22.4 µM [inhibitor, partial curve, poor fit]"
S=C(Nc1ccc(N2CCOCC2)cc1)Nc1ccc2nc(-c3ccco3)c(-c3ccco3)nc2c1,,active: 2.24 µM
N#C/C(=C\c1ccc(N2CCOCC2)o1)C(=O)Nc1ccc(O)cc1,,active: 14.1 µM
COC(=O)c1ccc2c(=O)[nH]c(CSc3nc(C)cs3)nc2c1,inactive: -5.74%,
Cc1ccc(N=Nc2c(N)nn3c(C)cc(C)nc23)cc1,,"inconclusive: 7.94 µM [inhibitor, partial curve]"
Oc1c(N=NC(=S)Nc2ccccc2F)c2ccccc2n1Cc1ccccc1F,,"inconclusive: 7.94 µM [inhibitor, full curve]"

Compound,"activity, negative = inhibition",Potency
Nc1c(C(=O)Nc2cccc(Cl)c2)sc2nc3c(cc12)CN(Cc1ccccc1)CC3,,"inconclusive: 3.98 µM [inhibitor, partial curve]"
COc1ccc(CC(=O)NC2CC(=O)N(c3ccc4c(c3)OCCO4)C2)cc1 (stereo not drawn),inactive: -1.57%,
O=c1cc(CO)oc(C(Nc2ccccn2)c2ccsc2)c1O (stereo not drawn),,"inconclusive: 35.5 µM [inhibitor, partial curve]"
Cc1ccc(Cl)cc1N1CCN(CCCNc2ncnc3onc(-c4ccc(F)cc4)c23)CC1,inactive: -16.1%,
CCOC(=O)c1sc2nc(C)cc(-c3ccccc3)c2c1N,,"inconclusive: 14.1 µM [inhibitor, partial curve]"
Cc1cc(Nc2sc(C(=O)c3ccc(F)cc3)c(N)c2C(=O)Nc2ccc(F)cc2)ccc1Cl,,active: 20 µM
COc1cc(NC(=O)CSc2nc(C)c(C(=O)Nc3ccccc3)c(-c3ccc(OC)c(OC)c3)c2C#N)c(OC)cc1Cl,inactive: -5.42%,
N#Cc1c(NCCCO)nc(NCc2ccccc2)c2c1CCN(Cc1ccccc1)C2,,"inconclusive: 20 µM [inhibitor, partial curve]"
O=C(NCc1ccccc1Cl)c1ccc(S(=O)(=O)Nc2cccc(C(F)(F)F)c2)cc1,,"inconclusive: 39.8 µM [activator, single point]"
CCOC(=O)c1c(NC(=O)CNCCOC)sc2c1CCCC2,,"inconclusive: 35.5 µM [inhibitor, single point]"
COc1cccc(N2CCN(C(=O)c3c(C)oc4ncnc(N5CCCCC5)c34)CC2)c1,,"inconclusive: 0.631 µM [inhibitor, single point]"
CCC(=O)N(Cc1c(C)nn(-c2ccccc2)c1Cl)c1ccc(Cl)cc1,,"inconclusive: 22.4 µM [inhibitor, single point]"
CNc1ccc(/C=C(\CCC(=O)O)c2nc3ccccc3s2)cc1[N+](=O)[O-],,active: 3.16 µM
CCOC(=O)C1CCN(C(=O)c2cc3cc4cc(OC)ccc4nc3o2)CC1,,"inconclusive: 22.4 µM [inhibitor, partial curve]"
CC1=C(C(=O)OC2CCCCC2)C(c2cccnc2)n2ncnc2N1 (stereo not drawn),,"inconclusive: 0.158 µM [inhibitor, full curve, poor fit]"
CCOC(=O)c1c(C)sc(-c2c(-c3ccc4c(c3)OCCO4)[nH]c3c2c(=O)[nH]c(=O)n3C)c1O,,"inconclusive: 12.6 µM [inhibitor, partial curve]"
O=C(c1ccc(-c2ccc(Cl)cc2)o1)N1CCN(c2ccc([N+](=O)[O-])cc2Cl)CC1,,"inconclusive: 5.01 µM [inhibitor, full curve]"
CN(Cc1ccc(-n2cccn2)cc1)Cc1nc(-c2cnccn2)no1,inactive: -9.01%,
C(=C\c1ccco1)/C=N/n1cnnc1,,active: 25.1 µM
CCOC(=O)N1CCN(C(=O)c2ccc(CS(=O)(=O)c3ccc(OC)cc3)o2)CC1,inactive: -6.5%,
COc1ccc(N(C(=O)COc2c(C)cccc2C)S(=O)(=O)c2ccc(Cl)cc2)cc1,,"inconclusive: 28.2 µM [inhibitor, partial curve]"
CCSc1ccccc1C(=O)Nc1ccc(-c2nc3ccccc3s2)c(O)c1,,"inconclusive: 3.16 µM [inhibitor, full curve]"
C/C(=N\Nc1ccccc1[N+](=O)[O-])c1ccc(N2CCOCC2)cc1,,"inconclusive: 0.631 µM [inhibitor, full curve]"
